Test results from US12729458B2, “Discovery and evolution of biologically active metabolites” (The Regents of the University of Colorado, a Body Corporate, priority 2020, dated 2026).
Read-outs that look alike come from different tables or passages of the source.

Tested on: TC-PTP (PTPN2)
Conditions: terpenoid produced in the cell by its pathway (pMBISCmR+ADS or ABA)

SMILES | antibiotic resistance with the PTP1B-specific versus the TC-PTP-specific B2H system | antibiotic resistance with the PTP1B-specific versus the TC-PTP-specific B2H system (listed as α -bisabolene) | antibiotic resistance with the PTP1B-specific versus the TC-PTP-specific B2H system (listed as AD)
CC(C)=CCC=C(C)C1CC=C(C)CC1 (stereo not drawn) [α-bisabolene] | permitted growth at higher concentrations of antibiotic | prominent survival advantage | –
C=C(C)[C@@H]1CC[C@@H](C)[C@@H]2CCC(C)=C[C@@H]21 [amorphadiene] | prominent survival advantage | – | permitted growth at higher concentrations of antibiotic
